About 14,000 (4.5%) of roughly 310,000 compounds showed an effect of 50% or more. The effect is printed as a negative number. The list shows a part of the results.
Target: human ether-à-go-go-related gene (hERG) potassium channel (human, UniProt Q12809)
Assay: primary screen, population patch clamp on CHO cells stably expressing hERG
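Further: peak tail current of the secondary pulse compared with the same well before compound.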

human ether-à-go-go-related gene (hERG) potassium channel, sequence (Q12809 whole entry, looked up): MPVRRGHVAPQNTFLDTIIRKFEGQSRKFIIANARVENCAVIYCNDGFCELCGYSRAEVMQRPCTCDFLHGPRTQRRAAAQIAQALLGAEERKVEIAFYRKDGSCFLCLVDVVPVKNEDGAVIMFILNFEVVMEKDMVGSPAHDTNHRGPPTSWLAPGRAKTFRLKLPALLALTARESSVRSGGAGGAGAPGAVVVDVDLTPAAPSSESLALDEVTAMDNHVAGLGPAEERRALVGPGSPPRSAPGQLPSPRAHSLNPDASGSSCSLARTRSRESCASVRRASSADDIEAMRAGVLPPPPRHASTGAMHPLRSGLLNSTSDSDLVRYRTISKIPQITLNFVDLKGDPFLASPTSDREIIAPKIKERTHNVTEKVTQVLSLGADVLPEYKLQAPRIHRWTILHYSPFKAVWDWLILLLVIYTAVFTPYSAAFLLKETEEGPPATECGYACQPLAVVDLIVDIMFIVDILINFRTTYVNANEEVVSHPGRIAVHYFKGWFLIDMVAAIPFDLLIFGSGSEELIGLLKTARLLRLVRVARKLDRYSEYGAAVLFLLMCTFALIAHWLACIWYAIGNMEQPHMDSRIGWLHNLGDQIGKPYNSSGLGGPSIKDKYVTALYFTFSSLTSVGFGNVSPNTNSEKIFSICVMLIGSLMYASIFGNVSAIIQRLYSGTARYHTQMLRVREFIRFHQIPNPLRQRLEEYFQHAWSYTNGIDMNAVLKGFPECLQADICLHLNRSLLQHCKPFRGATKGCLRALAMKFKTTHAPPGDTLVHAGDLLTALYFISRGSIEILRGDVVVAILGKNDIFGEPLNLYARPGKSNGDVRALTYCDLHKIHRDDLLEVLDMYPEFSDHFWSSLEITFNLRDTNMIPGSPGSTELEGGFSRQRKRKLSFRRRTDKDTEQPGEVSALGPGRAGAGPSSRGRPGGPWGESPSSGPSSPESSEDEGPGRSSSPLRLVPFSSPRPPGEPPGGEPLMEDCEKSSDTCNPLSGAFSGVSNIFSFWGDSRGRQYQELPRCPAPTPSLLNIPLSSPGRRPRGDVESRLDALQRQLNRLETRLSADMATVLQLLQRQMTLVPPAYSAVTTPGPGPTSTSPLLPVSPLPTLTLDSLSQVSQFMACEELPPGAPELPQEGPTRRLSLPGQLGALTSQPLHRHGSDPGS

SMILES	hERG current change (%, negative = inhibition) at 10uM
O=C(COC(=O)c1ccccc1Br)NC1CCCC1	7.33%
CCOC(=O)CSc1n[nH]c(NC(=O)c2ccccc2)n1	4.71%
CC(=O)Nc1ccc(C(=O)OCC(=O)c2cccc([N+](=O)[O-])c2)cc1	4.66%
CCC(C(=O)NCc1ccc(F)cc1)n1nc(C)n2c(cc3occc32)c1=O (centres unmarked)	7.09%
Cc1cc(CNC(=S)Nc2ccc(Br)cc2Cl)nn1C	-12.9%
O=C(NCCc1ccccc1)/C(=C\c1ccccc1)NC(=O)c1ccco1	-21.4%
COc1ccc(-c2nnc(N(C)C(=O)c3ccco3)s2)cc1OC	10.6%
Cn1ccc(-c2cc(C(=O)O)c3ccccc3n2)n1	20.6%
C[C@H](NC(=O)c1ccccc1Cl)C(=O)OCCOc1ccc(Cl)cc1	-1.62%
Nc1nc(-c2ccco2)cs1	9.88%
Cn1c(CCNS(=O)(=O)c2ccccc2)nc2cc([N+](=O)[O-])ccc21	-13.6%
O=C1C(Nc2ccccc2)=CC(c2ccc(O)cc2)N1c1ccccc1 (centres unmarked)	24.5%
O=C(CSc1nnc(CNc2ccc(F)cc2)n1Cc1ccco1)NC1CC1	-14.4%
O=C1Nc2cccnc2Sc2ccccc21	8.7%
Cc1cc(=O)oc2cc(OCC(=O)Nc3ccc(CN4CCOCC4)cc3)ccc12	3.15%
O=C(Nc1cccc(F)c1)c1cccnc1	3.96%
COc1ccc(NC(=O)CSc2nccn2-c2cccc(OC)c2)cc1	11.4%
CNC(=O)Nc1ccc(C(=O)N/N=C\C23CC[C@@H](O)CC2(O)CC[C@@H]2[C@@H]3CCC3(C)C(C4=CC(=O)OC4)CCC23O)cc1 (some centres unmarked)	11.9%
CCN1CCN(c2ccc(S(=O)(=O)N3CCOCC3)cc2NC(=O)CCC(C)C)CC1	-26.3%
Cc1ccc2oc(/N=C(\N)NC(=O)C3CC3)nc2c1	5.12%
O=C(c1ccc(N2CCN(C(=O)c3ccc(F)c(F)c3)CC2)cc1)c1cccc(F)c1	-16.7%
CC[n+]1c(P(=O)([O-])c2ccccc2)[nH]c2ccccc21	-13%

SMILES	hERG current change (%, negative = inhibition) at 10uM
O=C(Cn1ncn2c(cc3ccccc32)c1=O)NCCc1cccs1	8%
Cc1cc(C)c(NC(=O)COC(=O)CSc2ccc(Br)cc2C)c(C)c1	7.14%
COc1ccc(OC)c(N(CC(=O)NCc2cccnc2)S(C)(=O)=O)c1	9.95%
Cc1ccc(S(=O)(=O)Nc2nc3ccccc3s2)cc1[N+](=O)[O-]	4.99%
N/C(=N\OC(=O)CCC1CCCCC1)c1cccnc1	-20.6%
Nc1nonc1-n1nnc(C(=O)N/N=C/c2ccc(OCc3ccccc3)cc2)c1CNc1ccccc1	23.9%
CCN(CC)C(=S)SCC(=O)c1ccc(F)cc1	-7.58%
Cc1ccc2cc(CN(Cc3ccco3)S(=O)(=O)c3c(C)ccc4nsnc34)c(=O)[nH]c2c1	2.82%
Cc1c(NC(=O)c2cc3nc(-c4ccc(Br)cc4)cc(C(F)(F)F)n3n2)c(=O)n(-c2ccccc2)n1C	-33.9%
O=C(CC(n1cncn1)C(Cl)(Cl)Cl)c1ccc([N+](=O)[O-])cc1 (centres unmarked)	-48.8%
COc1ccc(NC(=O)C(C)NS(=O)(=O)c2ccc(NC(C)=O)cc2)cc1Cl (centres unmarked)	-6.35%
Cn1cc(CN(Cc2ccccc2)C[C@@H]2CCC(=O)N2)c(-c2ccccc2F)n1	-10.4%
O=C(NCc1ccc(F)cc1)c1nc(-c2cccs2)no1	-5.3%
CCn1c(SCC(=O)N2CCCCC2C)nc2ccsc2c1=O (centres unmarked)	-11.5%
CCOc1ccc(-c2noc(CCCC(=O)NC3CCCC3)n2)cc1OC	0.921%
COc1ccc(Nc2c3c(nc4ccc(C)cc24)CCC3)cc1.Cl	-78.3%
CCOc1ccc(C2=NNC(c3cccs3)=Nc3ccc(OCC)cc32)cc1	13.8%
CC1(C)CC2(C)OCCN2C(=S)N1 (centres unmarked)	2.64%
C=CCn1c(SCC(=O)NC(N)=O)nnc1-c1cc2c(s1)CCC(CC)C2 (centres unmarked)	3.79%
O=S(=O)(NCCCCCNS(=O)(=O)c1ccc(F)cc1)c1ccc(F)cc1	1.43%
COc1cccc(/C=C/C(=O)Nc2ccc3c(c2)OCCO3)c1	7.06%
O=c1[nH]cc(C(F)(F)F)cc1NS(=O)(=O)c1ccccc1[N+](=O)[O-]	12.6%

From PMC4336329 (PLoS ONE, 2015)
